B1: PhoQ; a variant is named by its letters at X, in order, P23837 (parent)
chain: MKKLLRLFFPLSLRVRFLLATAAVVLVLSLAYGMVALIGYSVSFDKTTFRLLRGESNLFYTLAKWENNKLHVELPENIDKQSPTMTLIYDENGQLLWAQRDVPWLMKMIQPDWLKSNGFHEIEADVNDTSLLLSGDHSIQQQLQEVREDDDDAEMTHSVAVNVYPATSRMPKLTIVVVDTIPVELKSSYMVWSWFIYVLSANLLLVIPLLWVAAWWSLRPIEALAKEVRELEEHNRELLNPATTRELTSLVRNLNRLLKSERERYDKYRTTLTDLTHSLKTPLXXLQXXLRSLRSEKMSVSDAEPVMLEQISRISQQIGYYLHRASMRGGTLLSRELHPVAPLLDNLTSALNKVYQRKGVNISLDISPEISFVGEQNDFVEVMGNVLDNACKYCLEFVEISARQTDEHLYIVVEDDGPGIPLSKREVIFDRGQRVDTLRPGQGVGLAVAREITEQYEGKIVAGESMLGGARMEVIFGRQHSAPKDE

This is one part of the list.

The variants in this assay derive from B1. Briefly: enrichment ratio after two sorts for PhoP signalling (ratio (wild type AVST 3.29)); higher = more functional. The conditions noted are these: with PhoP (E. coli).
In the case of MTTI, the enrichment ratio was determined as 5.04. Consider SNLN, for which the enrichment ratio worked out at 6.01. The same measure for DTYM: no more than 0.25; for DFDR: no more than 0.25; for LPAV: 0.353.

With TSGV, the enrichment ratio was determined as 10.7. GKSG: the enrichment ratio is no more than 0.25. For MVHT the value was no more than 0.25. For the variant MDKA, the enrichment ratio is no more than 0.25. Regarding GNVP, the enrichment ratio was no more than 0.25. Turning to IGTC, the enrichment ratio is no more than 0.25.

Turning to AMLQ, the enrichment ratio came to 0.306. The same measure for YYAG: no more than 0.25; for AYVC: no more than 0.25. The same measure for ASMW: 5.78. For PKAL the value was no more than 0.25.

As for FHWI, the enrichment ratio was no more than 0.25. EYFY: the enrichment ratio is no more than 0.25. SVSG: the enrichment ratio amounted to 13.4.

Turning to FLMD, the enrichment ratio was no more than 0.25. For IAPV the value was no more than 0.25. For IVPK the value was no more than 0.25. As to TAMA, the enrichment ratio came to 5.5.

Regarding SLFA, the enrichment ratio was no more than 0.25. For MGQW the value was no more than 0.25. On to MISP, for which the enrichment ratio is no more than 0.25.

Consider KKLQ, for which the enrichment ratio is no more than 0.25. For RKYV the value was no more than 0.25; for RNCF, no more than 0.25. In the case of WGVN, the enrichment ratio was no more than 0.25. The same measure for YNLV: 1.85.

Take QCVY: the enrichment ratio was no more than 0.25. The same measure for IEGQ: no more than 0.25; for PQMY: no more than 0.25; for QAWF: 4.29. The same measure for WDMN: no more than 0.25; for CSIL: no more than 0.25; for YWHP: no more than 0.25. Turning to MQHG, the enrichment ratio was no more than 0.25. For QEHH the value was 6.98. The same measure for MGYL: 5.25. The same measure for AYNL: no more than 0.25; for KLKA: no more than 0.25; for FSAH: 0.363. For QKRE, the enrichment ratio is no more than 0.25.

In the case of KYDQ, the enrichment ratio was no more than 0.25.

As to NWIF, the enrichment ratio is no more than 0.25. The same measure for WSYG: no more than 0.25; for DINR: no more than 0.25. For FNLK the value was no more than 0.25. For VIFN the value was no more than 0.25; for PIGP, no more than 0.25. As to SADI, the enrichment ratio is no more than 0.25. The same measure for GCDG: no more than 0.25; for LPKY: no more than 0.25. The same measure for NWSQ: no more than 0.25. For the variant VGCD, the enrichment ratio is no more than 0.25. Consider KHNV, for which the enrichment ratio is no more than 0.25. For KGHP the value was no more than 0.25; for MRLK, no more than 0.25. In the case of WQGG, the enrichment ratio is no more than 0.25. For DHLV the value was no more than 0.25; for VDTG, no more than 0.25. The same measure for SERK: no more than 0.25. WHYY: the enrichment ratio was no more than 0.25.

Turning to KNHW, the enrichment ratio is no more than 0.25. For TWRI the value was no more than 0.25; for INNQ, 9.63; for LYGS, no more than 0.25. For RMKD the value was no more than 0.25; for MWCV, no more than 0.25; for HNAC, no more than 0.25.

On to LIQK, for which the enrichment ratio is no more than 0.25. For VEAQ the value was no more than 0.25; for GHSD, no more than 0.25; for EFSE, no more than 0.25. The same measure for WMAY: no more than 0.25; for MRYE: no more than 0.25.

For the variant LECI, the enrichment ratio was determined as 3.94. For TMRC the value was no more than 0.25; for YIAW, 0.346. Consider STIV, for which the enrichment ratio was 11.9.

For the variant MKIM, the enrichment ratio is no more than 0.25. The same measure for SWIS: no more than 0.25; for EGRW: no more than 0.25; for YIYH: no more than 0.25. The same measure for YWQW: no more than 0.25; for LNSL: no more than 0.25; for FVPD: no more than 0.25. For GHAY the value was no more than 0.25; for IYFT, no more than 0.25. For DCVT, the enrichment ratio was no more than 0.25. For VCYP the value was no more than 0.25. The same measure for ACHR: no more than 0.25. Turning to QGFN, the enrichment ratio is 3.8. For AKNP the value was no more than 0.25.

With IFSR, the enrichment ratio is no more than 0.25. For SGKS the value was no more than 0.25. The same measure for SLLK: 0.946; for DTPN: no more than 0.25; for VQPN: no more than 0.25. KNYC: the enrichment ratio was no more than 0.25.

In the case of EPGI, the enrichment ratio is no more than 0.25. Regarding TCHN, the enrichment ratio was no more than 0.25. For YWSW the value was no more than 0.25.

PGLI: the enrichment ratio was no more than 0.25. The same measure for LIVV: no more than 0.25. For RDCP, the enrichment ratio is no more than 0.25.

For LSEW, the enrichment ratio is no more than 0.25. The same measure for HATQ: no more than 0.25; for SNIL: 1.93; for ENDA: no more than 0.25. As to WPFL, the enrichment ratio was no more than 0.25.

In the case of GHHH, the enrichment ratio was no more than 0.25. For KEAC the value was no more than 0.25. For MNMA the value was no more than 0.25; for PKIQ, no more than 0.25. The same measure for SEIM: 15.1. Consider GVIC, for which the enrichment ratio was no more than 0.25. For VYLD the value was 0.527. For DYWI the value was no more than 0.25; for GRMY, no more than 0.25; for WCCG, no more than 0.25. For AKVP the value was no more than 0.25.

Regarding ECRI, the enrichment ratio is no more than 0.25. The same measure for DGCA: no more than 0.25; for EPAI: no more than 0.25.

Turning to ISDG, the enrichment ratio is no more than 0.25. For ARWI the value was no more than 0.25; for ASGG, 4.75; for EMFF, no more than 0.25. For TGPA the value was no more than 0.25; for AHSY, no more than 0.25.

Regarding NWAG, the enrichment ratio is no more than 0.25. Take YWAP: the enrichment ratio is no more than 0.25. For EFQN the value was no more than 0.25; for HVGW, no more than 0.25. For PRMD the value was no more than 0.25; for SDYH, no more than 0.25. For the variant PCVE, the enrichment ratio was no more than 0.25. In the case of VAWL, the enrichment ratio worked out at 4.11.

As for NCNP, the enrichment ratio was no more than 0.25. Consider TVQL, for which the enrichment ratio is 16.7. The same measure for FYID: no more than 0.25.

As to LMYK, the enrichment ratio is no more than 0.25. The same measure for QSEI: no more than 0.25; for NSSM: 0.911; for FWNI: no more than 0.25. For ESDF the value was no more than 0.25; for ALSY, 6.65; for EEWV, no more than 0.25. Regarding FWQG, the enrichment ratio was no more than 0.25. On to IAKC, for which the enrichment ratio is no more than 0.25.

These data come from a collection of fitness landscapes (doi:10.1126/science.1257360).
